In the antibiotic and cytotoxicity screens of Wong et al. (2023):
This is one part of the list.

Legend:
HSkMC = human skeletal muscle cells; assay: cytotoxicity call (relative viability < 0.9); details: 10 µM
HepG2 = assay: cytotoxicity call (relative viability < 0.9); details: 10 µM
S. aureus RN4220 = assay: growth inhibition call (relative growth <= 0.2); details: 50 µM

Compound	cytotoxicity call (HSkMC)	cytotoxicity call (HepG2)	growth inhibition call (S. aureus RN4220)
C[C@@H]1CN([C@H](C)CO)C(=O)c2cccc(NC(=O)Nc3ccccc3)c2O[C@@H]1CN(C)Cc1ccc(C(F)(F)F)cc1	inactive	inactive	inactive
CC(C)CN(C[C@@H](O)[C@H](Cc1ccccc1)NC(=O)O[C@H]1CCOC1)S(=O)(=O)c1ccc(N)cc1	inactive	inactive	inactive
C[C@H](CO)N1C[C@H](C)[C@H](CN(C)S(=O)(=O)c2cccs2)OCCCC[C@H](C)Oc2ccc(NS(C)(=O)=O)cc2C1=O	inactive	inactive	inactive
Cc1cc(C(=O)Nc2cccc3c2O[C@H](CN(C)C(=O)Nc2c(C)noc2C)[C@H](C)CN([C@@H](C)CO)C3=O)n(C)n1	inactive	inactive	inactive
C[C@@H]1CN([C@@H](C)CO)C(=O)c2cc(NC(=O)Nc3ccccc3)ccc2O[C@@H](C)CCCCO[C@H]1CN(C)C(=O)C1CCCCC1	inactive	inactive	inactive
COc1ccc(NC(=O)N(C)C[C@H]2Oc3ncc(C#C[C@H](C)O)cc3C(=O)N([C@H](C)CO)C[C@@H]2C)cc1	inactive	inactive	inactive
COc1ccc(S(=O)(=O)Nc2ccc3c(c2)C(=O)N([C@H](C)CO)C[C@H](C)[C@H](CN(C)C(=O)CCC(F)(F)F)OCCCC[C@H](C)O3)cc1	inactive	inactive	inactive
Cc1ccc(S(=O)(=O)N2C[C@@H](O)COC[C@@H]3O[C@@H](CC(=O)N[C@H]4CCN(Cc5ccccc5)C4)CC[C@H]32)cc1	inactive	inactive	inactive
C[C@H](CO)N1C[C@H](C)[C@@H](CN(C)Cc2ccc(Oc3ccccc3)cc2)Oc2c(NS(=O)(=O)c3ccc(F)cc3)cccc2C1=O	inactive	inactive	inactive
C[C@@H]1CCCCO[C@H](CN(C)Cc2ccc(C(=O)O)cc2)[C@@H](C)CN([C@@H](C)CO)C(=O)c2cc(NC(=O)NC3CCCCC3)ccc2O1	inactive	inactive	inactive
COc1ccc(NC(=O)N(C)C[C@@H]2OCCCC[C@@H](C)Oc3ccc(NC(=O)Nc4cccc5ccccc45)cc3C(=O)N([C@@H](C)CO)C[C@H]2C)cc1	inactive	inactive	inactive
C[C@@H]1CN([C@H](C)CO)C(=O)c2cc(NC(=O)Cn3cnnn3)ccc2O[C@@H]1CN(C)Cc1ccc(C(=O)Nc2ccccc2N)cc1	inactive	inactive	inactive
CN(C)CCc1cc(Br)c(OCCCNC(=O)/C=C/c2cc(Br)c(OCCN3CCCC3)c(Br)c2)c(Br)c1	active	active	inactive
C[C@H](CO)N1C[C@H](C)[C@H](CN(C)Cc2ccc(Cl)c(Cl)c2)Oc2ccc(NS(=O)(=O)c3cccs3)cc2CC1=O	inactive	inactive	inactive
Cc1noc(C)c1NC(=O)N(C)C[C@@H]1Oc2ccc(NC(=O)CCCN(C)C)cc2C(=O)N([C@H](C)CO)C[C@@H]1C	inactive	inactive	inactive
Cc1cc(C(C)(C)CC(C)(C)C)ccc1OCCOCC[N+](C)(C)Cc1ccccc1.[Cl-]	active	active	active
CNC[C@@H]1OCCCC[C@H](C)Oc2ccc(NC(=O)Nc3ccc(C(F)(F)F)cc3)cc2C(=O)N([C@H](C)CO)C[C@H]1C	inactive	inactive	active
C[C@@H]1CN([C@@H](C)CO)C(=O)c2cc(NS(=O)(=O)c3ccc(Cl)cc3)ccc2O[C@@H](C)CCCCO[C@H]1CN(C)C(=O)c1ccccc1	inactive	inactive	inactive
CCS(=O)(=O)Nc1ccc2c(c1)C(=O)N(C)C[C@@H](OC)[C@H](C)CN(CCC(F)(F)F)[C@@H](C)CO2	inactive	inactive	inactive
CC(C)(N)c1cn(C2CCN(C(=O)C3CCC(C(C)(C)C)CC3)CC2)nn1 (configuration not stated)	inactive	inactive	inactive
COc1ccccc1S(=O)(=O)N[C@@H]1CC[C@H](CCNC(=O)C2CC2)O[C@H]1CO	inactive	inactive	inactive
O=c1[nH]c(=O)n([C@H]2C[C@H](O)[C@@H](CO)O2)cc1CO	inactive	inactive	inactive
C[C@@H]1CCCCO[C@H](CN(C)C(=O)c2ccncc2)[C@H](C)CN([C@H](C)CO)C(=O)c2cc(NC(=O)NC3CCCCC3)ccc2O1	inactive	inactive	inactive
Cc1ccc(S(=O)(=O)N(C)C[C@@H]2Oc3c(NC(=O)c4cc(C)nn4C)cccc3C(=O)N([C@H](C)CO)C[C@H]2C)cc1	inactive	inactive	inactive
